Assay results from the RNAGym collection of RNA variant scans (doi:10.1093/nar/gkz1192).
Read counts are not given, so values of variants with three or more changes are uncertain.

B1: CPEB3 Ribozyme (parent)
chain: UAACAGGGGGCCACAGCAGAAGCGUUCACGUCGCAGCCCCUGUCAGAUUCUGGUGAAUCUGCGAAUUCUGCUGUAUAUCUC

Variants of: B1
Assay: self-cleavage, relative activity (ratio to wild type); higher = more cleavage; in vitro, sequencing
How it was run: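 CPEB3 self-cleaving ribozyme mutant libraries were made by rounds of error-prone PCR, barcoded, and transcribed in vitro with T7 RNA polymerase for 5 hours at 37°C. Cleavage occurred during transcription and a 15 min DNase I step before EDTA stop. RNAs were reverse transcribed with template switching and Illumina-sequenced, with DNA sequencing mapping barcodes to variants. Relative activity is the variant's cleaved/total read fraction divided by wild type's (minimum 5 reads), averaged across three batches.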

| Variant | self-cleavage |
| --- | --- |
| G8C C34G U48C U51C | 0.23 |
| G8C U25C A65G U72C U74C | 0.05 |
| G8C U25C U26C U69C U72A G73A A77G | 0 |
| G8C U26A G36A U41A G46A U67C U72C | 0.04 |
| G8C U26A G52C | 0.07 |
| G8C U26A G55A | 0.35 |
| G8C U31C U48C U72C | 0.15 |
| G8C U60A U69A | 0.05 |
| G8U A13G A20G C29U C40G U54A U60A | 0.04 |
| G8U A13G C38A | 0.06 |
| G8U A13G U41A | 0.07 |
| G8U A13U U51A U72G U76C U78C | 0.04 |
| G8U A15G A56U U76C | 0.2 |
| G8U A15G U31C A35U U41C | 0.16 |
| G8U A15G U41A U48C U54C A56G | 0.06 |
| G8U A15G U48C U54C U69C | 0.26 |
| G8U A15U A20U C32A U43C G53U | 0.04 |
| G8U A18C U48C | 0.09 |
| G8U A18G U43C C68U U72C | 0.09 |
| G8U A18U A47G U80A | 0.04 |
| G8U A18U U66C U74C | 0.1 |
| G8U A18U U72A | 0.18 |
| G8U A18U U80C | 0.06 |
| G8U A20G A35G U54A U80C | 0.08 |

| Variant | self-cleavage |
| --- | --- |
| G8U A20G C34U A35G U41C A77G | 0.04 |
| G8U A20G G55A U80C | 0.06 |
| G8U A20G U41G U54G U67C | 0.14 |
| G8U A20U C34U U41C U67C | 0.09 |
| G8U A20U C38U U41C U54C A65G U67C | 0.03 |
| G8U A21C U43C U78A | 0.05 |
| G8U A21G A45U U80C | 0.11 |
| G8U A21G C23A U69A A75G | 0.11 |
| G8U A21G U26A A35U U48C A64U U72A | 0.05 |
| G8U A21G U48C U60G C62U U72G | 0.02 |
| G8U A21G U58A A64G G70U | 0.05 |
| G8U A28G U41C A64U U72C | 0.07 |
| G8U A35U U51C U58C U69A | 0.1 |
| G8U A45U U51A A64G | 0.06 |
| G8U A57G C68A U80A | 0.12 |
| G8U C11U A45G U48C | 0.21 |
| G8U C12G A15G A18U A20U A45U | 0.05 |
| G8U C17U U31A C50U U51G U60C A64U | 0.06 |
| G8U C17U U58C U78C | 0.05 |
| G8U C32U A45G U80C | 0.07 |
| G8U G9A U51A U58G | 0.18 |
| G8U G9U U31C U41C | 0.36 |
| G8U G10A A35G A45G | 0.24 |
| G8U G33U A56G A77U | 0.15 |

| Variant | self-cleavage |
| --- | --- |
| G8U G46A U51A | 0.12 |
| G8U U25C A28G G33U U41C | 0.09 |
| G8U U25G A28G A47G U69C | 0.05 |
| G8U U26A G30U U76C | 0.09 |
| G8U U31A A47U U67A | 0.12 |
| G8U U41C A57G U60A C62U | 0.07 |
| G8U U51C A56U | 0.07 |
| G8U U54C U67C | 0.08 |
| G8U U54C U76C | 0.16 |
| G8U U60A U66A | 0.14 |
| G8U U69A U72A A75G | 0.03 |
| G8U U69C U72C U78C | 0.14 |
| G8U U69C U80A | 0.13 |
| G8U U72C A77G U78C | 0.19 |
| G9A A13C A21U U41A U54G | 0.08 |
| G9A A13C A47G A56G | 0.29 |
| G9A A13C C50A | 0.11 |
| G9A A13G A18U U41C G42C | 0.06 |
| G9A A13G U31C A35U A47G | 0.05 |
| G9A A13U U58C | 0.29 |
| G9A A15C U72A | 0.14 |
| G9A A15G A18G U26A U66C | 0.14 |
| G9A A15G C37U U78G | 0.11 |
| G9A A15G G22U U26C A45G U69A U78C | 0.04 |

| Variant | self-cleavage |
| --- | --- |
| G9A A15G G24U G52A U58C | 0.06 |
| G9A A15G U25C U60C U66C | 0.26 |
| G9A A15G U26A A45G U49A G52U U60C | 0.06 |
| G9A A15G U69C | 0.07 |
| G9A A15G U72A | 0.13 |
| G9A A15U A18G | 0.32 |
| G9A A15U A18G C40U U41A | 0.2 |
| G9A A15U A28U A35U | 0.07 |
| G9A A15U A35U U49A U72C A77G | 0.03 |
| G9A A15U A64U | 0.06 |
| G9A A15U G16A U25C U51A U74C C79A | 0.04 |
| G9A A15U U26A A35G C40A U41C A47C | 0.04 |
| G9A A15U U26C A28G U43C | 0.06 |
| G9A A15U U31G U41C A47G | 0.22 |
| G9A A18C U41C A56G U74C | 0.06 |
| G9A A18G A20G A21G U26C A64G | 0.05 |
| G9A A18G A28U C40A U41A A57U | 0.04 |
| G9A A18G A28U U43C U48C G52A A64G | 0.03 |
| G9A A18G G30A | 0.24 |
| G9A A18U U51A U80A | 0.39 |
| G9A A20G U41A A56U | 0.18 |
| G9A A20U A65G | 0.05 |
| G9A A20U U25C C34G U60A A75G | 0.04 |
| G9A A21C A35G U41C A47U A57G U58C | 0.03 |

| Variant | self-cleavage |
| --- | --- |
| G9A A21G C23U A35G U58C G70A | 0.14 |
| G9A A21G C50U U54C | 0.06 |
| G9A A21G U41A | 0.18 |
| G9A A21G U43C U54C C59A G63A A65G | 0.1 |
| G9A A21G U54C A64U | 0.05 |
| G9A A28C A45G U48C C62U U80C | 0.12 |
| G9A A28C U31C A45U A64G | 0.05 |
| G9A A28G A35G U49A U67C | 0.09 |
| G9A A28G G42A U51C U54C A65U A75G | 0.04 |
| G9A A28G U31A A35U A57G A77U | 0.09 |
| G9A A28G U41A | 0.31 |
| G9A A28G U41C U48C U58C U60C U72A | 0.03 |
| G9A A28U C29G U31C U54A A75G U78G | 0.03 |
| G9A A28U C40U U66C | 0.04 |
| G9A A28U U51C A65G | 0.06 |
| G9A A35G C37A A64G U66C U69A U78C | 0.03 |
| G9A A35G U41C G52A | 1.04 |
| G9A A35G U41C U80C | 1.05 |
| G9A A45G U51A A56G | 0.08 |
| G9A A45G U69C | 0.16 |
| G9A A47G A64U | 0.08 |
| G9A A56G A77G | 0.42 |
| G9A A57G U60C U80C | 0.05 |
| G9A C11G U80C | 0.07 |

| Variant | self-cleavage |
| --- | --- |
| G9A C12A A18U U31C U60C U78A | 0.03 |
| G9A C12A U25C U43A A56G | 0.07 |
| G9A C14G A45G | 0.05 |
| G9A C17U C29G | 0.18 |
| G9A C17U U26C C29G | 0.04 |
| G9A C23G A77G | 0.28 |
| G9A C23G U31A U43C U76C | 0.04 |
| G9A C23G U41A U69A | 0.04 |
| G9A C27A A35G U51C U54C U80C | 0.07 |
| G9A C27A G36A U49C A56G U66C | 0.04 |
| G9A C27A U31A U48G U54C A56C U76C | 0.04 |
| G9A C29U A45C U49C U72G | 0.14 |
| G9A C32U A35G U41A A56G U60A U76A | 0.04 |
| G9A C32U U48C A56U | 0.01 |
| G9A C32U U60C U69C | 0.05 |
| G9A C38U U41C U72C U74C A77G | 1.28 |
| G9A C38U U43A U72C A77G | 1.17 |
| G9A C38U U72C A77G | 1.09 |
| G9A C40U U51C | 0.07 |
| G9A C44U A57G | 0.05 |
| G9A G10C A18G | 0.18 |
| G9A G10C A64G | 0.48 |
| G9A G10C U26A U31A U49C G61A U67A | 0.04 |
| G9A G10C U43C A64G A75G | 0.23 |

| Variant | self-cleavage |
| --- | --- |
| G9A G19C C40G A56U U69A A77G | 0.07 |
| G9A G22A G55A U80A | 0.05 |
| G9A G24A U25G A35G | 0.07 |
| G9A G24C A35G U49G U51C U78C | 0.13 |
| G9A G30C A65G U67A | 0.07 |
| G9A G33A A35G U80C | 0.32 |
| G9A G33A G36A U41C | 0.08 |
| G9A G33A U41A U51A A65G A77G U78A | 0.04 |
| G9A G36U A47C U60C | 0.25 |
| G9A G36U C38A U69G | 0.04 |
| G9A G53A G61A A65G U72C | 0.17 |
| G9A U25A A35G U72C | 0.94 |
| G9A U25A A45G C62U U72C U76A | 0.04 |
| G9A U25A G30A U76A U78C | 0.06 |
| G9A U25A U58C | 0.05 |
| G9A U25C A28U C38U A47G A56G | 0.04 |
| G9A U25C A28U U31C U49C A65G | 0.06 |
| G9A U25C A57G A64G | 0.1 |
| G9A U25C A64G U80A | 0.06 |
| G9A U25C A77G | 0.42 |
| G9A U25C C29G A45U U74A A77G | 0.04 |
| G9A U25C U41A A45U A65G U78C | 0.04 |
| G9A U25G U51A C62U U67C U74C A75U | 0.03 |
